Assay results: a collection of fitness landscapes (doi:10.1016/j.celrep.2020.107928)
In all, about 81,000 sequences were measured (“one-hybrid fitness for binding parS DNA”: median about -0.17, highest 2% from about 0.51 on). This is one part of the list.

B1: Caulobacter ParB omega fusion; a variant is named by its letters at X, in order, B8GW30 (parent)
chain: MESVVVGEPGMSEGRRGLGRGLSALLGEVDAAPAQAPGEQLGGSREAPIEILQRNPDQPRRTFREEDLEDLSNSIREKGVLQPILVRPSPDTAGEYQIVAGERAWRAAQRAGLKTVPIMVRELDDLAVLEIGIIENVQRADLNVLEEALSYKVLMEKFERTQENIAQTIGKSXSHVANXMRLLXLPDEVQSYLVSGELTAXHARAIAAAADPVALAKQIIEGGLSVRETEALARKAPNLSAGKSKGGRPPRVKDTDTQALESDLSSVLGLDVSIDHRGSTGTLTITYATLEQLDDLCNRLTRGI

Variants of: B1
Assay: one-hybrid fitness for binding parS DNA (scaled: cognate 1, non-cognate 0); higher = stronger binding
Details: with parS DNA site
How it was run: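 Fitness is the rescaled log change in variant-to-wild-type read ratio, measured by Illumina sequencing of plasmids before and after bacterial one-hybrid selection. The scale puts cognate at 1 and non-cognate at 0. Selection of Caulobacter ParB libraries, four specificity codons randomised, took place in E. coli USO with a HIS3 reporter, site 19 bp from the promoter, over 48 hours at 37°C on M9-minus-histidine with 0.1 mM IPTG and 5 mM 3-AT.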

Row | Variant | one-hybrid fitness for binding parS DNA
1 | ALAT | ≤ 0.2
2 | QQWY | ≤ 0.2
3 | SWYQ | ≤ 0.2
4 | GPSY | ≤ 0.2
5 | SCKG | ≤ 0.2
6 | GHPV | ≤ 0.2
7 | GVWR | ≤ 0.2
8 | NNDW | ≤ 0.2
9 | EYQL | ≤ 0.2
10 | RNCM | ≤ 0.2
11 | RYKN | 0.394
12 | QISL | ≤ 0.2
13 | ILDG | ≤ 0.2
14 | QGSL | ≤ 0.2
15 | QNTE | ≤ 0.2
16 | ISVL | ≤ 0.2
17 | FACC | ≤ 0.2
18 | SMHL | ≤ 0.2
19 | AYSC | ≤ 0.2
20 | MMAS | ≤ 0.2
21 | VSRF | ≤ 0.2
22 | MASG | ≤ 0.2
23 | RCWN | 0.401
24 | VLTI | ≤ 0.2

Row | Variant | one-hybrid fitness for binding parS DNA
25 | PTKS | ≤ 0.2
26 | WFQV | ≤ 0.2
27 | QMPI | ≤ 0.2
28 | IIGC | ≤ 0.2
29 | QVIV | ≤ 0.2
30 | PCSF | ≤ 0.2
31 | QYMN | ≤ 0.2
32 | KQGR | ≤ 0.2
33 | WELC | ≤ 0.2
34 | TPTI | ≤ 0.2
35 | RKDT | 0.832
36 | CASR | ≤ 0.2
37 | FGKS | ≤ 0.2
38 | PYTA | ≤ 0.2
39 | SGLT | ≤ 0.2
40 | CQGE | ≤ 0.2
41 | WNST | ≤ 0.2
42 | QGPD | ≤ 0.2
43 | MTDG | ≤ 0.2
44 | QAAD | ≤ 0.2
45 | HHCS | ≤ 0.2
46 | HVCG | ≤ 0.2
47 | KWAE | ≤ 0.2
48 | QWLR | ≤ 0.2

Row | Variant | one-hybrid fitness for binding parS DNA
49 | RKGP | ≤ 0.2
50 | PYMT | ≤ 0.2
51 | RNLC | 0.736
52 | LRYL | ≤ 0.2
53 | YTFW | ≤ 0.2
54 | IQGL | ≤ 0.2
55 | TDKQ | ≤ 0.2
56 | QDIT | ≤ 0.2
57 | NHRE | ≤ 0.2
58 | QGAE | ≤ 0.2
59 | QVGV | ≤ 0.2
60 | RDQD | ≤ 0.2
61 | ERVW | ≤ 0.2
62 | HWFS | ≤ 0.2
63 | RRPS | 0.757
64 | SFAG | ≤ 0.2
65 | RTNI | ≤ 0.2
66 | NRGG | ≤ 0.2
67 | TMPK | ≤ 0.2
68 | LFSG | ≤ 0.2
69 | TRNS | ≤ 0.2
70 | KYVG | ≤ 0.2
71 | LCPG | ≤ 0.2
72 | GRGK | ≤ 0.2

Row | Variant | one-hybrid fitness for binding parS DNA
73 | IILL | ≤ 0.2
74 | DTRY | ≤ 0.2
75 | RPAI | ≤ 0.2
76 | SYKF | ≤ 0.2
77 | QRVP | ≤ 0.2
78 | MMTM | ≤ 0.2
79 | PDAL | ≤ 0.2
80 | TATI | ≤ 0.2
81 | QLDQ | ≤ 0.2
82 | EWFG | ≤ 0.2
83 | QQVI | ≤ 0.2
84 | QKTM | ≤ 0.2
85 | MSAL | ≤ 0.2
86 | LQPR | ≤ 0.2
87 | HYAC | ≤ 0.2
88 | QKQP | ≤ 0.2
89 | EGPT | ≤ 0.2
90 | RFNE | ≤ 0.2
91 | RSMN | 0.402
92 | PVWA | ≤ 0.2
93 | RLSI | ≤ 0.2
94 | MRWR | ≤ 0.2
95 | HNSF | ≤ 0.2
96 | SDQR | ≤ 0.2

Row | Variant | one-hybrid fitness for binding parS DNA
97 | YHFG | ≤ 0.2
98 | DESG | ≤ 0.2
99 | RWEF | ≤ 0.2
100 | HLSK | ≤ 0.2
101 | VGYT | ≤ 0.2
102 | ERSG | ≤ 0.2
103 | YELS | ≤ 0.2
104 | TNPI | ≤ 0.2
105 | NPMG | ≤ 0.2
106 | ITTM | ≤ 0.2
107 | KYLA | ≤ 0.2
108 | KFMT | ≤ 0.2
109 | IPHA | ≤ 0.2
110 | FMPE | ≤ 0.2
111 | TVEE | ≤ 0.2
112 | QQLH | ≤ 0.2
113 | ASLW | ≤ 0.2
114 | LTST | ≤ 0.2
115 | DVNC | ≤ 0.2
116 | RFKA | 0.571
117 | EGAF | ≤ 0.2
118 | LIDT | ≤ 0.2
119 | ITRP | ≤ 0.2
120 | KAAS | ≤ 0.2

Row | Variant | one-hybrid fitness for binding parS DNA
121 | DYWM | ≤ 0.2
122 | QSST | ≤ 0.2
123 | RMSI | ≤ 0.2
124 | RTDD | ≤ 0.2
125 | LFFT | ≤ 0.2
126 | HLTH | ≤ 0.2
127 | HPQH | ≤ 0.2
128 | TYVG | ≤ 0.2
129 | YQVL | ≤ 0.2
130 | DMNC | ≤ 0.2
131 | QYVT | ≤ 0.2
132 | LNHV | ≤ 0.2
133 | DLDS | ≤ 0.2
134 | QGNM | ≤ 0.2
135 | IQLF | ≤ 0.2
136 | ASNG | ≤ 0.2
137 | NSHF | ≤ 0.2
138 | QPFL | ≤ 0.2
139 | QHNE | ≤ 0.2
140 | IAPC | ≤ 0.2
141 | REGY | ≤ 0.2
142 | TQHR | ≤ 0.2
143 | CTVR | ≤ 0.2
144 | PKTY | ≤ 0.2

Row | Variant | one-hybrid fitness for binding parS DNA
145 | CHYV | ≤ 0.2
146 | GRAL | ≤ 0.2
147 | PWFN | ≤ 0.2
148 | CYSG | ≤ 0.2
149 | HVDW | ≤ 0.2
150 | TMVT | ≤ 0.2
151 | HCAC | ≤ 0.2
152 | QQIR | ≤ 0.2
153 | DDPL | ≤ 0.2
154 | NDGK | ≤ 0.2
155 | DAPD | ≤ 0.2
156 | WFLP | ≤ 0.2
157 | PFSS | ≤ 0.2
158 | SLGG | ≤ 0.2
159 | PCNG | ≤ 0.2
160 | SRRS | ≤ 0.2
161 | HRNA | ≤ 0.2
162 | ARRP | ≤ 0.2
163 | RIAK | ≤ 0.2
164 | TPRS | ≤ 0.2
165 | TPQR | ≤ 0.2
166 | GYVR | ≤ 0.2
167 | NKYC | ≤ 0.2
168 | WTQC | ≤ 0.2

Row | Variant | one-hybrid fitness for binding parS DNA
169 | RPCS | ≤ 0.2
170 | QEKA | ≤ 0.2
171 | LKRS | ≤ 0.2
172 | RVFG | 0.993
173 | LATT | ≤ 0.2
174 | HSEC | ≤ 0.2
175 | GTSM | ≤ 0.2
176 | VMCS | ≤ 0.2
177 | YSAT | ≤ 0.2
178 | PKNY | ≤ 0.2
179 | CLSC | ≤ 0.2
180 | GRRK | ≤ 0.2
181 | TALE | ≤ 0.2
182 | TPRI | ≤ 0.2
183 | HRMM | ≤ 0.2
184 | FDSL | ≤ 0.2
185 | ITEG | ≤ 0.2
186 | HNRG | ≤ 0.2
187 | RAFQ | ≤ 0.2
188 | GSPS | ≤ 0.2
189 | GWLM | ≤ 0.2
190 | KPFA | ≤ 0.2
191 | RQGI | ≤ 0.2
192 | CCYR | ≤ 0.2

Row | Variant | one-hybrid fitness for binding parS DNA
193 | QDHM | ≤ 0.2
194 | DVLS | ≤ 0.2
195 | IRGF | ≤ 0.2
196 | RMWC | 0.984
197 | RVLG | 0.992
198 | PKAT | ≤ 0.2
199 | YRLP | ≤ 0.2
200 | RPPL | ≤ 0.2
201 | YPAC | ≤ 0.2
202 | SCHF | ≤ 0.2
203 | KPVT | ≤ 0.2
204 | PNMK | ≤ 0.2
205 | WRHL | ≤ 0.2
206 | SLFV | ≤ 0.2
207 | NFHG | ≤ 0.2
208 | HFAS | ≤ 0.2
209 | TMLN | ≤ 0.2
210 | QTGY | ≤ 0.2
211 | KYWS | ≤ 0.2
212 | YRGS | 0.356
213 | QRVC | ≤ 0.2
214 | NEIT | ≤ 0.2
215 | HTHT | ≤ 0.2
216 | SRMM | ≤ 0.2

Row | Variant | one-hybrid fitness for binding parS DNA
217 | SRAI | ≤ 0.2
218 | RCHG | 0.994
219 | LEPD | ≤ 0.2
220 | TRVQ | ≤ 0.2
221 | FGRL | ≤ 0.2
222 | CCPS | ≤ 0.2
223 | HLSG | ≤ 0.2
224 | LAKT | ≤ 0.2
225 | YETG | ≤ 0.2
226 | RYHQ | ≤ 0.2
227 | QEHF | ≤ 0.2
228 | RHVN | 0.302
229 | MTTA | ≤ 0.2
230 | PDTD | ≤ 0.2
231 | YSEY | ≤ 0.2
232 | LTIS | ≤ 0.2
233 | WTRS | ≤ 0.2
234 | SDTY | ≤ 0.2
235 | SMCF | ≤ 0.2
236 | ISLN | ≤ 0.2
237 | NWKT | ≤ 0.2
238 | RVLT | 0.92
239 | YYCC | ≤ 0.2
240 | FYDV | ≤ 0.2

Row | Variant | one-hybrid fitness for binding parS DNA
241 | ACVN | ≤ 0.2
242 | YDCG | ≤ 0.2
243 | IRYT | ≤ 0.2
244 | TRWC | ≤ 0.2
245 | AIEC | ≤ 0.2
246 | AEHT | ≤ 0.2
247 | RNFG | 0.662
248 | KRES | ≤ 0.2
249 | AGHS | ≤ 0.2
250 | KPTY | ≤ 0.2
251 | NPQV | ≤ 0.2
252 | IRCC | ≤ 0.2
253 | KYWL | ≤ 0.2
254 | DFHG | ≤ 0.2
255 | HVWT | ≤ 0.2
256 | NPTS | ≤ 0.2
257 | YQQS | ≤ 0.2
258 | WWRT | ≤ 0.2
259 | STGI | ≤ 0.2
260 | GIHR | ≤ 0.2
261 | ISDW | ≤ 0.2
262 | TKMW | ≤ 0.2
263 | NSRT | ≤ 0.2
264 | KSPN | ≤ 0.2

Row | Variant | one-hybrid fitness for binding parS DNA
265 | RKCK | ≤ 0.2
266 | QQKE | ≤ 0.2
267 | HGGT | ≤ 0.2
268 | RLIE | ≤ 0.2
269 | SESS | ≤ 0.2
270 | PPGE | ≤ 0.2
271 | NVPW | ≤ 0.2
272 | KMAF | ≤ 0.2
273 | RIPV | ≤ 0.2
274 | SSVN | ≤ 0.2
275 | KHTA | ≤ 0.2
276 | TDNG | ≤ 0.2
277 | SDYC | ≤ 0.2
278 | GTAA | ≤ 0.2
279 | PTTV | ≤ 0.2
280 | CTYT | ≤ 0.2
281 | NACR | ≤ 0.2
282 | HSCL | ≤ 0.2
283 | IMSS | ≤ 0.2
284 | LDKY | ≤ 0.2
285 | RCTH | 0.249
286 | WHPE | ≤ 0.2
287 | RKCN | 0.302
288 | IDWR | ≤ 0.2

Row | Variant | one-hybrid fitness for binding parS DNA
289 | FWQG | ≤ 0.2
290 | KLQV | ≤ 0.2
291 | DGKC | ≤ 0.2
292 | KWLC | ≤ 0.2
293 | LWIG | ≤ 0.2
294 | GRHY | ≤ 0.2
295 | CDMC | ≤ 0.2
296 | KGIV | ≤ 0.2
297 | SPTN | ≤ 0.2
298 | TNES | ≤ 0.2
299 | VVMR | ≤ 0.2
300 | RNCQ | ≤ 0.2
301 | HGMN | ≤ 0.2
302 | GCPR | ≤ 0.2
303 | QNTW | ≤ 0.2
304 | KVWG | ≤ 0.2
305 | YAQA | ≤ 0.2
306 | QRKC | ≤ 0.2
